The supplement of paper PMC3334620
The full ranking holds about 33,000 sequences; the median of “E-score (-0.5 to 0.5)” is about -0.021, and the highest 2% start at about 0.32. The list shows a part of the results.

Molecular target: T1, Zap1 (UniProt P47043)
T1 sequence: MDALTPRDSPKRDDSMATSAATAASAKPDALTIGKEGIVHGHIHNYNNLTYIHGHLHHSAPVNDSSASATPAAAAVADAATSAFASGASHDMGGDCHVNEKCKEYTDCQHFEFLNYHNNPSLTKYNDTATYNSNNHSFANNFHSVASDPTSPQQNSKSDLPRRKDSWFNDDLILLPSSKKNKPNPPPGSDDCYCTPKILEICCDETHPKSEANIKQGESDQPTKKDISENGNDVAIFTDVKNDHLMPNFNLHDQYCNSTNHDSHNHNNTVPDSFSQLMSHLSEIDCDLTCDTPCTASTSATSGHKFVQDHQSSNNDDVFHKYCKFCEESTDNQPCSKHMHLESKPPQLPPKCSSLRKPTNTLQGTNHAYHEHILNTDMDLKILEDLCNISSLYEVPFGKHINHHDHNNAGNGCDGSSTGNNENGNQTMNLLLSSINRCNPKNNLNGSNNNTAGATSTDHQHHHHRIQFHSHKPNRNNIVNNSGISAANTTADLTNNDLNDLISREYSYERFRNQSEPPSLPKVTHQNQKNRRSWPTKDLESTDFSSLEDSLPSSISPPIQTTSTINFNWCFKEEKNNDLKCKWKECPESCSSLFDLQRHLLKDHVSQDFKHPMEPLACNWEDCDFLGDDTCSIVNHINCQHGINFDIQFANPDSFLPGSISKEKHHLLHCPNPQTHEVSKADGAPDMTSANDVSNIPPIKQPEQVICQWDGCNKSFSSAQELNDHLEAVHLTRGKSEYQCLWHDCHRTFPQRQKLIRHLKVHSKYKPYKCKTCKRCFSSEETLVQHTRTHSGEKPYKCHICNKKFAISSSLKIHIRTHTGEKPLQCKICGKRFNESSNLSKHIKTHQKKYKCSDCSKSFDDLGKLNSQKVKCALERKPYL
Experiment: PBM E-score (8-mer binding enrichment) (E-score (-0.5 to 0.5)); higher = stronger / more preferred TF binding; most listed sequences are background and not binding sites
Conditions: protein concentration: 200 nM; construct: GST-full length
Outline: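 Each ungapped eight-base word and its reverse complement, pooled, received an E-score from the Universal PBM Analysis Suite. Underlying scans, normalised with masliner, recorded fluorescent anti-GST bound to GST-tagged yeast transcription factors. These were applied at about 100-200 nM to universal all-10-mer Agilent arrays double-stranded by primer extension.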

| Sequence | PBM E-score |
| --- | --- |
| CCCTTTCG | 0.0237 |
| AGGCTAGC | -0.246 |
| AGTTCTAG | 0.0413 |
| AACTGGGG | 0.0402 |
| CAGCCAAG | -0.242 |
| ATGTAACG | 0.0833 |
| AAAGACAC | 0.0889 |
| ATACTACC | 0.212 |
| CGAACAAC | 0.282 |
| ATAATACA | 0.287 |
| CGTCAGCC | -0.117 |
| GATGAACC | 0.141 |
| GATGGGCC | -0.145 |
| ATAGTCCG | -0.0936 |
| AGTCATAG | -0.108 |
| TGAACACA | 0.0543 |
| GATGGCTA | -0.113 |
| TAAGAGAA | -0.0973 |
| CTTTCGAA | 0.0121 |
| ATAGGTAC | 0.36 |
| AGACCATG | 0.129 |
| ACCTAGGG | 0.119 |
| AATTCCCA | -0.0786 |
| GTTAGAGA | -0.0542 |
| CTCTACTC | -0.0848 |

| Sequence | PBM E-score |
| --- | --- |
| AAACTAGA | 0.00397 |
| AGAACTTA | 0.0139 |
| GGGATCCA | -0.154 |
| CACGTCAC | 0.0546 |
| CGTGTAGA | -0.0575 |
| TGCGAGCA | -0.288 |
| CAATATAA | 0.103 |
| CGTACGGC | -0.2 |
| ATATAACG | 0.183 |
| AAGAGTCG | 0.0105 |
| AGGTGACG | 0.182 |
| CCCGAGAA | 0.0545 |
| ATACCCAG | 0.05 |
| ATTGAACA | -0.106 |
| ACGGCTAG | -0.13 |
| CCTGATGC | -0.102 |
| AACCCATT | 0.276 |
| GGTGACTA | 0.172 |
| ACTGTATG | 0.0496 |
| CGGCCAGA | -0.035 |
| GGGTCCCA | 0.027 |
| CCGGCACG | -0.00897 |
| CGGCTAAG | -0.101 |
| CTCGAGGC | 0.0131 |
| AAAGCTAG | -0.19 |

| Sequence | PBM E-score |
| --- | --- |
| CCCCGCAG | 0.0731 |
| ACGAAAAA | 0.207 |
| CCTCTATA | -0.0329 |
| CGCAGCGA | -0.0525 |
| CGCGCGTC | 0.179 |
| ATTGTCGC | -0.127 |
| ATATGAGG | -0.0922 |
| AAGCAGTG | -0.0232 |
| CGAAGCCC | -0.254 |
| GGCCACAA | 0.248 |
| GAAACGGA | -0.0221 |
| CGCAGGCC | -0.0704 |
| AGTCGGGC | -0.093 |
| ACTGCTCC | -0.0486 |
| GGAGCTGA | -0.183 |
| AACGCGTG | 0.0993 |
| CTTAAAAA | 0.193 |
| AGGTTCAG | 0.11 |
| CTTCCTCC | -0.236 |
| AAGTCACC | -0.0374 |
| CTAAGCTA | -0.0153 |
| ACGTCGGA | -0.12 |
| ACAGCTGA | 0.00506 |
| AGAATTAT | -0.134 |
| CGCGCCGC | -0.0825 |

| Sequence | PBM E-score |
| --- | --- |
| CATGGACG | 0.0405 |
| CTGTGCCA | -0.202 |
| CGCTCCCG | -0.259 |
| ACCAACCC | 0.233 |
| CTTAGATC | 0.0336 |
| CTGAACAA | 0.0791 |
| CGAAATCG | 0.0146 |
| AAGGGTAA | 0.393 |
| GATGGTCA | 0.158 |
| CCGAACGC | -0.0556 |
| ACACGAGG | 0.17 |
| AAATCAGG | -0.041 |
| CCAGAGGA | 0.0119 |
| CCTCCGAG | 0.0452 |
| TGCAAGAA | 0.0291 |
| GAATGGAA | 0.0161 |
| GGATCGGA | -0.277 |
| TCTGCACA | -0.0923 |
| GACTGTTA | -0.0543 |
| CTGTTCCA | -0.113 |
| AAGCAGGC | -0.296 |
| ATCATCCG | -0.171 |
| GACGGCCC | -0.15 |
| ACCCGGCT | 0.057 |
| TCGGCACA | -0.0863 |

| Sequence | PBM E-score |
| --- | --- |
| CCGAGTTA | -0.0277 |
| ATGGGTGC | -0.109 |
| CTTCGTGA | 0.0345 |
| AGGAGTCC | -0.0783 |
| AGGATCTC | -0.172 |
| AAACACTC | 0.101 |
| CAACCGAC | 0.0135 |
| CTGCACAA | 0.00356 |
| AGCACACA | -0.0404 |
| ATTTGATG | 0.0551 |
| CCACCATA | -0.00272 |
| ACGCTCTG | -0.228 |
| GTCTCCCA | -0.252 |
| ACATTCAC | -0.0724 |
| CGAAGATA | 0.0453 |
| ACGTTAAC | 0.0746 |
| AGAAGGGG | -0.116 |
| CATCCTTA | -0.109 |
| CCTGCGCG | -0.078 |
| CCGCCTCA | -0.165 |
| ATTGACTA | -0.0924 |
| CCAGGGAG | -0.229 |
| CTCTTGGA | 0.138 |
| GAAATCTC | -0.0874 |
| GGCCGTCA | 0.0979 |

| Sequence | PBM E-score |
| --- | --- |
| GTGCACGA | 0.0644 |
| GGAGTGAC | -0.00521 |
| CAGAGAGG | -0.279 |
| CCTTCTCG | -0.0939 |
| ATGATATG | -0.0173 |
| CAGTAGTC | -0.331 |
| ACTTTGAA | -0.0276 |
| GTCGAACA | 0.101 |
| CACCGCTC | -0.244 |
| ATCACCAC | 0.232 |
| ATAAGGGC | -0.0859 |
| ACTTAGCG | 0.0173 |
| AGGCAAAC | 0.121 |
| AATCTAAA | 0.0847 |
| CTGATATC | -0.146 |
| AGATGAGA | -0.00937 |
| ACCCTGAT | 0.344 |
| AACGATGG | -0.0888 |
| ACAGAACT | 0.00266 |
| ACCATGAC | 0.232 |
| AAGTCTAG | -0.264 |
| ACACAGTA | 0.0878 |
| ATTTGACC | 0.172 |
| GCACCTGA | 0.0331 |
| GCAAGGAC | -0.111 |

| Sequence | PBM E-score |
| --- | --- |
| AAGACAAC | 0.23 |
| GCGGAAAA | -0.0196 |
| ACCTTTAC | 0.307 |
| GGCGGTGA | -0.101 |
| TATCAACA | 0.115 |
| TAACTTAA | 0.202 |
| CGCGCCCA | 0.117 |
| GCAGTCGA | -0.184 |
| ACGGCTAA | -0.0161 |
| CTTAATAA | 0.0375 |
| GAGACAAA | -0.173 |
| AACAGTGC | -0.151 |
| GAAATAAC | 0.221 |
| CACGAGTG | -0.0272 |
| ACAGAAAG | 0.11 |
| AGAGTGTC | 0.151 |
| AGCACATG | 0.0785 |
| CAGGTCCC | 0.0637 |
| GTATAGTA | 0.0617 |
| ATATGCAT | -0.0211 |
| CTCAAAGA | 0.0384 |
| CCTCACAA | 0.202 |
